± gives the standard deviation of the averaged measurements. This is one part of the list.
These sequences were tested on PfAP2-I AP2 domain 3 (GST-tagged) (assay: gcPBM binding intensity (ln(normalized median fluorescence intensity)); higher = stronger DNA binding).
Summary of the method: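 An Agilent 4 × 180k array carrying primer-extended double-stranded 36-bp intergenic genomic probes and negative controls received GST-tagged P. falciparum DNA-binding domains expressed in E. coli, about 25 μg on average, for 1 h. The binding buffer contained 1× PBS, 1% milk, 0.2 mg/ml BSA, 0.5% salmon testes DNA and 0.03% Triton X-100. Binding intensity is the top Masliner-normalised natural-log median intensity across replicate spots of either probe orientation, read after Alexa488 anti-GST antibody staining and a 488 nm scan.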

Sequence | gcPBM binding intensity (ln)
AATATTAAACAAATGAAAAAAAAATATATATTATAT [CACACA_negctrl_site742] | 7.7 ± 0.59
TTTAATTAAAATATATGTACATATATATATATATAT [XGTACX_site4517] | 9.28 ± 0.042
AATATATATATGATTATATATATATATATATATATA [GTGCAC_negctrl_site290] | 9.12 ± 0.54
AAAATAACACAAATGGGTACATATTATATTAAATAA [XGTACX_site7027] | 7.78 ± 0.3
ATATATTCATTTTTATGTACGTAAATTGTAAATTGG [XGTACX_site8242] | 8.16 ± 0.099
AAAATAATAATAAAAAGTACATGTGTATATAATAAA [XGTACX_site754] | 8.11 ± 0.51
TGCATTATTTTATGAAGTACATATGAACAAAAAATT [XGTACX_site2185] | 8.25 ± 0.34
AAATTATCCAAAAATTGTACTTAAAACAACATAAAA [XGTACX_site6238] | 7.62 ± 0.39
AAAGAAGGTAAACACACACACACACCGACAAAAAAA [CACACA_site9255] | 7.92 ± 0.45
ACCATTTGTAGGTAAACACACATTATTCTTAATATC [CACACA_site5453] | 7.78 ± 0.61
TTTCTCTTATTCCAATCTATAATAAGTATCAATATT [CACACA_negctrl_site179] | 7.7 ± 0.6
AATATATGGTTTCATGATATAAAATTCAATTTAATG [GTGCAC_negctrl_site610] | 7.4 ± 0.47
TATATATATATATATGTATGCATGTCCTTTTTTATT [TGCATGCA_site344] | 9.39 ± 0.16
ATTTTTTTTAAACGAAGTACAATTTGTGCATTGGAA [XGTACX_site8109] | 10 ± 0.86
TTTTTTTTTTTTGTAGTGCAAATTAAAAATATATGT | 10.6 ± 0.53
TGTTTATCATATTTGTGTCCTCATTTTTTAGTATCA [XGTACX_site947] | 8.01 ± 0.41
ATTTTTTTTTTTTTTTTTTTTTTTTTTTTTTTATGC [CACACA_negctrl_site1018] | 7.85 ± 0.68
TTATTTCTTCAGAAAAAATTAAAAAATTAAACAATA [CACACA_negctrl_site169] | 7.53 ± 0.5
TGTTTACACTTTTTTTGTACACATAATTTTATTTGA [XGTACX_site3760] | 7.89 ± 0.53
AAAAAAAAAAAAAACACACACATATAACATATTTAA [CACACA_site6745] | 8.19 ± 0.38
TATTCTAGTCTGCTTACACACATATTTATATTTATA [CACACA_site7432] | 8.01 ± 0.71
TAATATTTTATTTTTGTTGTGGATCCAAAAAAAAAA [CACACA_negctrl_site846] | 7.76 ± 0.57
CTATATATTTAAAAAAGTACAAATATAAAAATATAT [XGTACX_site676] | 7.92 ± 0.38
AAGATCATATATTCGTGGGTATAAAAAGTTATAATA [TGCATGCA_negctrl_site439] | 7.88 ± 0.32

Source: the supplement of paper PMC11417369
